Source: patent US8586634B2, “Therapeutic compounds” (University of Florida Research Foundation, Inc., priority 2007, dated 2013)
Where two headings read alike, the source gives them in different places.

Assays:
[1] = biological target: 5HT2B receptors (Homo sapiens, UniProt P41595); assay: Radioreceptor competition binding, [3H]-mesulergine, membranes of transfected CHO-K1 cells; conditions: for nH: Table 5, 5HT2B
[2] = biological target: 5-HT2A receptors (Homo sapiens, UniProt P28223); assay: Radioreceptor competition binding, [3H]-ketanserin, membranes of transfected CHO-K1 cells; conditions: for nH: Table 5, 5HT2A
[3] = biological target: Muscarinic Receptor M3 (Homo sapiens, UniProt P20309); assay: Muscarinic receptor affinity; assay type: binding; conditions: read-out: Affinity of (+/−)trans-PAT Ki
Experimental: (§1) Muscarinic receptor activity is assessed using any suitable protocol, including those essentially as described in: Novascreen, NIMH Psychotherapeutic Drug Discovery and Development Program, Oceanix Biosciences Corporation, 1996; and PDSP, Psychoactive Drug Screening Program; B L Roth, Director. NIMH Contract NO2MH80002, Case Western Reserve University, Cleveland, Ohio, and University of North Carolina, Chapel Hill, N.C., 2005.

[4] = biological target: T1, Muscarinic Receptor M5 (Homo sapiens, UniProt P08912); assay: Muscarinic receptor affinity; assay type: binding; conditions: read-out: Affinity of (+/−)trans-PAT Ki
T1 sequence (P08912 1-532): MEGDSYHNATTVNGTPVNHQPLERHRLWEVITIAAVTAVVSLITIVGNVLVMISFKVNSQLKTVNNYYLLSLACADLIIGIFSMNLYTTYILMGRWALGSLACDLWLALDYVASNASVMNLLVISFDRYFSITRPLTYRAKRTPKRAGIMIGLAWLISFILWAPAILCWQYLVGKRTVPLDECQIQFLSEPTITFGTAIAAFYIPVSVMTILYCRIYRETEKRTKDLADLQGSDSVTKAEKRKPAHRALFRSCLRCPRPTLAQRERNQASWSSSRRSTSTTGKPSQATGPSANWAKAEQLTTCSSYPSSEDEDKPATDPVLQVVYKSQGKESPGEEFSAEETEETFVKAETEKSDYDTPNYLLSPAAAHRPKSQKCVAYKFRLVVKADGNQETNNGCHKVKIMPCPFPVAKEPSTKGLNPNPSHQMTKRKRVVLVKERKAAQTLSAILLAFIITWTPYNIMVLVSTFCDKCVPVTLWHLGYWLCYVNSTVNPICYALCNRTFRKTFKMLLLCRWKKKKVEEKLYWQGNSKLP
Experimental: as §1

Sequence of UniProt P28223 (P28223 whole entry): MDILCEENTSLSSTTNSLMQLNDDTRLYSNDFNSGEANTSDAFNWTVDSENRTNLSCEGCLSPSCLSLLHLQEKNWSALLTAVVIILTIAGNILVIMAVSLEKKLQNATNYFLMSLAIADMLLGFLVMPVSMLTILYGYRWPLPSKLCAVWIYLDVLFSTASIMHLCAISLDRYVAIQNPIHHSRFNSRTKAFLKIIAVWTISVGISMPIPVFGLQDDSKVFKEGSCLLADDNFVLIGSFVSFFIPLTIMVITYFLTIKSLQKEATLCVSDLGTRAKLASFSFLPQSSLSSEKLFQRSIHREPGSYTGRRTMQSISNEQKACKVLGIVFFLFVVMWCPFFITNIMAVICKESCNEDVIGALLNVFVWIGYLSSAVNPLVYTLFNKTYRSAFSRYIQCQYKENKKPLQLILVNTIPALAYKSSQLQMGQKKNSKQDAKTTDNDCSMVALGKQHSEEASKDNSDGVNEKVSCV
Sequence of UniProt P41595 (P41595 whole entry): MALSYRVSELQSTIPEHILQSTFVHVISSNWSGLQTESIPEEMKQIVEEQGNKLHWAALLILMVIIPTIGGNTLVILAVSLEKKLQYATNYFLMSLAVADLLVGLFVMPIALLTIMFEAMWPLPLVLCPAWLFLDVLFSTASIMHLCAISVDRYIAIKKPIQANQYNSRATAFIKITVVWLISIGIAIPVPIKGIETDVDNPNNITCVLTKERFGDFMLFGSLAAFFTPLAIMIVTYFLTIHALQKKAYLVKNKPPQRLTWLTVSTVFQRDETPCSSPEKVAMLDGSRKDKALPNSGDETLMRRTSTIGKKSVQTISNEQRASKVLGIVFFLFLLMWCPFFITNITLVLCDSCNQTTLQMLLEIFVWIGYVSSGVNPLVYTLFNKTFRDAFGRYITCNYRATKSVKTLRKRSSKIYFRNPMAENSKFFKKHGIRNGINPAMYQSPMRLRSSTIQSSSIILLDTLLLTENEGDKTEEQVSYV
Sequence of UniProt P20309 (P20309 whole entry): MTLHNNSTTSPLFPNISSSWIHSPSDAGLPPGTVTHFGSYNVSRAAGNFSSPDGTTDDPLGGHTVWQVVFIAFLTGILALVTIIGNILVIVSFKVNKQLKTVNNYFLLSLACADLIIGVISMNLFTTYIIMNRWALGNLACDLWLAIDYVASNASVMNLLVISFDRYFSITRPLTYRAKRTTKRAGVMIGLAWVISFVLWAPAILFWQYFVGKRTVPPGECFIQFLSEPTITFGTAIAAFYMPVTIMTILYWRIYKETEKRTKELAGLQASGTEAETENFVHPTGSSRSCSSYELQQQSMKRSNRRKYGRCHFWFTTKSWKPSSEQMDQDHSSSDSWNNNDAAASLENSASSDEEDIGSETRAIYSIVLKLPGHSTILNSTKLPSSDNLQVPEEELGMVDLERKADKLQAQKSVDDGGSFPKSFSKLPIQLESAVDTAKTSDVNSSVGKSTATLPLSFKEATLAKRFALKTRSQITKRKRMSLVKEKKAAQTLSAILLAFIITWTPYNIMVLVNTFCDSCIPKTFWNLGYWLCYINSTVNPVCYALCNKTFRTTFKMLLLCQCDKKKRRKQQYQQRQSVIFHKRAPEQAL

CN(C)[C@H]1Cc2ccccc2[C@H](c2ccccc2)C1 [PAT 2]
Ki [1]: ~2500 nM
nH [1]: 1.0
nH [2]: 1.0

CN(C)[C@@H]1Cc2ccccc2[C@@H](c2ccccc2)C1 (relative stereo) [PAT 1, (1R,3S)-(−)-Trans-1-phenyl-3-N,N-dimethylamino-1,2,3,4-tetrahydronaphthalene]
nH [1]: 1.0
Ki ([1]; read-out: 5HT2B Ki ± SEM, Table 5): 1170 nM
nH [2]: 0.9
Ki ([2]; read-out: 5HT2A Ki ± SEM, Table 5): 407 ± 38.4 nM

CN(C)C1Cc2ccccc2C(c2ccccc2)C1 (racemic) [(±)-trans-PAT]
Ki [3]: 1300 nM
Ki [4]: 600 nM
